The other results are listed elsewhere or left out.
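Also: jurkat cells carrying a lentiviral library of mutant zinc finger degrons fused to EGFP plus mCherry, mCherry+ cells FACS sorted, degron abundance counted by next-generation sequencing.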

This experiment concerns the target no compound (DMSO). Nature of the experiment: log2 fold change of degron read counts, EGFP-low vs EGFP+ sorted cells; higher = lower degron-EGFP level without compound (poor expression or instability). The note with it: compound: DMSO control; 18 h.
LICPICGFICTQKGNLLRHIKL: the “log2 fold change of degron read counts” value amounted to 1.66.

Take FYCDQCGAFFTQKGNLLRHIKL: the “log2 fold change of degron read counts” value is -0.0152.

Take FTCNICGAGFTQKGNLLRHIKL: the “log2 fold change of degron read counts” value is -0.608.

As to FHCNVCGAQFTQKGNLLRHIKL, the “log2 fold change of degron read counts” value was -0.913.

With FQCEICGARFTQKGNLLRHIKL, the “log2 fold change of degron read counts” value is -0.795.

Turning to FRCPVCGAPFTQKGNLLRHIKL, the “log2 fold change of degron read counts” value amounted to 0.432.

FMCNQCGRNFTQKGNLLRHIKL: the “log2 fold change of degron read counts” value came to 0.0499.

Regarding FWCPICGRRFTQKGNLLRHIKL, the “log2 fold change of degron read counts” value is -1.03.

On to FECPVCGAAFTQKGNLLRHIKL, for which the “log2 fold change of degron read counts” value is -1.24.

With FFCEVCGALFTQKGNLLRHIKL, the “log2 fold change of degron read counts” value is -0.156.

In the case of FQCDQCGAIFTQKGNLLRHIKL, the “log2 fold change of degron read counts” value was -1.81.

FHCEICGAIFTQKGNLLRHIKL: the “log2 fold change of degron read counts” value is -0.486.

Consider LNCPICGFECTQKGNLLRHIKL, for which the “log2 fold change of degron read counts” value is -0.0958.

With FRCEICGAPFTQKGNLLRHIKL, the “log2 fold change of degron read counts” value is -0.7.

For the sequence LMCPICGFSCTQKGNLLRHIKL, the “log2 fold change of degron read counts” value stood at 0.81.

As for FICEICGADFTQKGNLLRHIKL, the “log2 fold change of degron read counts” value is -1.24.

As to FHCDQCGALFTQKGNLLRHIKL, the “log2 fold change of degron read counts” value was -0.815.

Consider LLCNQCGFFCTQKGNLLRHIKL, for which the “log2 fold change of degron read counts” value was found to be 1.86.

In the case of LLCPICGFLCTQKGNLLRHIKL, the “log2 fold change of degron read counts” value is 2.12.

On to FTCPVCGADFTQKGNLLRHIKL, for which the “log2 fold change of degron read counts” value is -0.64.

Regarding FICEQCGASFTQKGNLLRHIKL, the “log2 fold change of degron read counts” value is -1.71.

Consider FTCEICGRFFTQKGNLLRHIKL, for which the “log2 fold change of degron read counts” value is -1.05.

As for LHCPICGFYCTQKGNLLRHIKL, the “log2 fold change of degron read counts” value stood at 1.5.

For the sequence FVCEICGRRFTQKGNLLRHIKL, the “log2 fold change of degron read counts” value is -0.967.

As to FTCNQCGHIFTQKGNLLRHIKL, the “log2 fold change of degron read counts” value was -0.51.

For FECEQCGAVFTQKGNLLRHIKL, the “log2 fold change of degron read counts” value was -3.07.

For the sequence FGCNVCGAAFTQKGNLLRHIKL, the “log2 fold change of degron read counts” value is -0.112.

Turning to FMCEVCGAWFTQKGNLLRHIKL, the “log2 fold change of degron read counts” value is -0.233.

Turning to FICPQCGAQFTQKGNLLRHIKL, the “log2 fold change of degron read counts” value was -0.904.

Consider FHCNICGAKFTQKGNLLRHIKL, for which the “log2 fold change of degron read counts” value was -0.583.

Consider FGCEQCGACFTQKGNLLRHIKL, for which the “log2 fold change of degron read counts” value is -1.87.

For the sequence LFCNQCGFACTQKGNLLRHIKL, the “log2 fold change of degron read counts” value came to 1.43.

The record behind these values is the supplement of paper PMC12645437, “Orthogonal IMiD-Degron Pairs Induce Selective Protein Degradation in Cells” (ACS Chemical Biology, 2025).
